These results are taken from PubChem BioAssay AID488969 (Vanderbilt High Throughput Screening Facility, 2010).

Structures are written as SMILES. Whole data set: some 110,000 compounds, median “z-score” near -0.1, cut for the highest 2% near 2. The list shows a part of the results.

The target of the assay is Metabotropic glutamate receptor 8 (Rattus norvegicus) (UniProt P70579). Nature of the assay: mGluR8 Gi/Go-coupled signaling modulation – cell-based, rat, thallium flux, HTS, primary screen (AID 488969). Particulars: HEK293 rat mGluR8, GIRK (G protein-gated inwardly rectifying potassium channel) thallium flux, FluoZin2; at 10 µM; stronger effect = higher value; submaximal glutamate (EC20) added with thallium.
Sequence of UniProt P70579 (P70579 whole entry, looked up): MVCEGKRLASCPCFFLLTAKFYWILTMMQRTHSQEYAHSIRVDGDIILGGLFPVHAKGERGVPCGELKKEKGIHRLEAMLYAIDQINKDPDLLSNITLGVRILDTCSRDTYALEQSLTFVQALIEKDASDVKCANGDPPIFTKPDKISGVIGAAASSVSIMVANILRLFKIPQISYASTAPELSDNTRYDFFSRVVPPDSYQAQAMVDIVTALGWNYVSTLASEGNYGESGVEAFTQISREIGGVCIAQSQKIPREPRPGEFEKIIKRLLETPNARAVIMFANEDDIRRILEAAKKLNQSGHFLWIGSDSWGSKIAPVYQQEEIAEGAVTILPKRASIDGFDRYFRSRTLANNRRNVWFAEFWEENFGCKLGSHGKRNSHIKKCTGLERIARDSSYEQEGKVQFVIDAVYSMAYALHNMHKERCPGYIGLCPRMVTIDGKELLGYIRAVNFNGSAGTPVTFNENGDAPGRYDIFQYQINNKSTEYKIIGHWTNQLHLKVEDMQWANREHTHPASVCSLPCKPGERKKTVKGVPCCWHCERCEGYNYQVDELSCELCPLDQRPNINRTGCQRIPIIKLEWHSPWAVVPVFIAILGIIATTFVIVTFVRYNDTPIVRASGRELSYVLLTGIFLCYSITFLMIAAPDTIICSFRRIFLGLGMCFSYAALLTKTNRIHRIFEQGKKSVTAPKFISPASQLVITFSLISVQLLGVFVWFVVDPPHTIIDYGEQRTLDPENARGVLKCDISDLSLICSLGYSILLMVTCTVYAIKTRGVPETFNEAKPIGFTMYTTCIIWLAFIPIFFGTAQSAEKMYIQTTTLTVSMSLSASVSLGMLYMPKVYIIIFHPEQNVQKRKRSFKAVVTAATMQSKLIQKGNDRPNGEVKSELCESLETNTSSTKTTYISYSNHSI
As for `COCCCn1c(=N)c(C(=O)NCC2CCCO2)cc2c(=O)n3cccc(C)c3nc21` (centres undefined), the z-score was -0.218.

Consider `CC(C)CNC(=O)CC(=O)N/N=C/c1ccc(Br)cc1`, for which the z-score was -0.0806.

On to `COc1cccc(OC)c1NC(=O)C1CCCN1C(=O)NCc1ccccc1` (centres undefined), for which the z-score was -0.253.

On to `O=C(CN1CCC(n2nnc3cc(C(F)(F)F)ccc32)CC1)N1CCc2ccccc21`, for which the z-score was -0.724.

The compound `CCCc1nc2cc(CC(=O)OC)ccc2o1` had a z-score of 0.0788.

The compound `CC1OC23CCCCC2C(C#N)(C(=N)O3)C1(C#N)C#N` (centres undefined) yielded a z-score of 1.17.

`CC(=O)N1CCN(c2ccccc2NC(=O)COc2cc(C)ccc2C(C)C)CC1`: the z-score was -1.18.

`Cc1cc(C)c(N=Cc2c(O)n(-c3nccs3)c(=O)c3ccccc23)c(C)c1`: the z-score is -0.767.

With `CCCCOc1ccc(CSc2ncn[nH]2)cc1`, the z-score is 0.244.

Consider `O=C(N/N=C1\CCCc2c1[nH]c1ccc([N+](=O)[O-])cc21)c1ccncc1`, for which the z-score was -0.000819.

As to `COc1ccc(/C=N/NC(=O)CN(C2=NS(=O)(=O)c3ccccc32)c2ccccc2)cc1OC`, the z-score is -0.34.

`N/C(=N\OC(=O)c1ccco1)c1ccccc1` yielded a z-score of 1.55.

With `Cc1ccc(C(=O)O)cc1S(=O)(=O)N1CCOCC1`, the z-score was -0.267.

For the compound `COCC(=O)N(C)c1nnc(-c2cnc(C)cn2)s1`, the z-score was 1.04.

With `O=C(c1ccc(CS(=O)(=O)c2ccccc2)o1)N1CCOCC1`, the z-score is -0.0612.

On to `Cc1sc2ncnc(SCC(=O)c3ccc4c(c3)OCCO4)c2c1-c1ccccc1`, for which the z-score was 0.289.

`Cc1cc(C)cc(NS(=O)(=O)c2ccc(NC(=S)Nc3ccccc3)cc2)c1` displayed a z-score of 9.02e-05.

Regarding `CCOC(=O)N1CCN(C(=O)CN(Cc2ccccc2)S(C)(=O)=O)CC1`, the z-score is -0.183.

As for `CC1(C)CC(=O)C2=C(C1)OC(c1ccc(O)cc1)C(C#N)=C2N` (centres undefined), the z-score is -1.2.

Take `Cc1cc(C)nc(Nc2ncc(O)n2-c2ccccc2)n1`: the z-score was -0.435.

On to `C=C(C)CNC(=S)N/N=C/c1ccc(N2CCOCC2)cc1`, for which the z-score stood at 0.134.

As for `O=C(NN=C1CCCCCCCCCCC1)c1ccccc1F`, the z-score came to 0.015.

For `CCC1(C(=O)OC)NC(c2ccco2)C2C(=O)N(c3ccccc3)C(=O)C21` (centres undefined), the z-score is -0.0661.

For `COc1ccc(OC)c(NC(=O)CSc2nc3ccccc3cc2Cc2ccccc2)c1`, the z-score is 0.0675.

Regarding `CCCCNC(=O)NCC(=O)Nc1ccc(F)c(F)c1`, the z-score is 1.15.

For the compound `O=C1CCCc2c1nn(-c1ccccc1)[n+]2[O-]`, the z-score came to 0.353.

On to `COc1ccc(C2C(C#N)=C(C)NC3=C2C(=O)CC(C)(C)C3)c(OC)c1` (centres undefined), for which the z-score is -0.368.

Consider `Cc1[nH][nH]c(=O)c1C(c1ccc(O)c([N+](=O)[O-])c1)c1c(C)[nH][nH]c1=O`, for which the z-score was -0.177.

`Cc1ccc(S(=O)(=O)NCC(=O)N(CC(=O)NCC2CCCO2)C2CCCC2)cc1` (centres undefined): the z-score stood at 0.179.

Consider `CSCCC(NC(=O)c1ccccc1)c1nc(-c2ccccc2)no1` (centres undefined), for which the z-score is -0.416.

`COCCn1cnnc1SCC(=O)Nc1cccc(S(=O)(=O)N2CCCCCC2)c1`: the z-score was -0.541.

`Cc1ccc(N(CC(=O)NCCSCc2ccco2)S(=O)(=O)c2ccc(C)cc2)cc1`: the z-score is -0.457.

`COc1ccc(C(=O)CSc2cc(C)nc(SCC(=O)c3ccc(C)cc3)n2)cc1`: the z-score is -0.124.

For `CC1=C(C(=O)OCC2CCCO2)C(c2ccccc2Cl)NC(=O)N1` (centres undefined), the z-score was -0.105.

With `CCCc1cc(=O)n2[nH]c(NCc3cccs3)nc2n1`, the z-score is -0.866.

With `O=C(N/N=C/c1c[nH]c2ccccc12)c1ccn(Cc2ccc(Cl)cc2)n1`, the z-score was -0.152.

For `Cc1ccc(S(=O)(=O)Nc2nc3n(n2)C(c2ccc(Cl)cc2)CC(=O)N3)cc1` (centres undefined), the z-score was -0.0522.

The compound `CN1CCN(/C=N/c2c(C#N)cnn2C)CC1` came in with a z-score of 0.146.

As to `CCSc1nc(N2CCCCC2)c2c(c1C#N)CCCC2`, the z-score was -0.0717.

With `FC(F)(F)c1ccc(Cl)c(N/N=C/c2ccc(N3CCOCC3)s2)c1`, the z-score was -0.185.

Consider `CN(C)CCCN(C(=O)c1ccc2c(c1)CCCC2)c1nc2ccc(Cl)cc2s1`, for which the z-score was -0.225.

For the compound `O=C(CCC(=O)Nc1ccccc1Cl)N/N=C1\CCCc2ccccc21`, the z-score is -0.0173.

`CCOC(=O)Cc1csc(NC(=O)COc2ccccc2OCC)n1` had a z-score of 1.64.

`Cc1cc(Nc2ccc3c(c2)OCCO3)n2ncnc2n1`: the z-score was found to be 0.494.

As to `CCOC(=O)C1[C@H]2C(=O)N(C(C)c3ccc(OC)cc3)C[C@]23C=C[C@H]1O3` (some centres undefined), the z-score came to 0.209.

The compound `CCc1cc2ccccc2nc1SCC(=O)Nc1cc(C)on1` showed a z-score of 0.395.

As to `Cc1cc(S(=O)(=O)NC2CCCCC2)ccc1OCC(=O)NCc1ccccn1`, the z-score amounted to 1.29.

Consider `CCC1CCc2c(sc(NC(=O)c3ccco3)c2C(N)=O)C1` (centres undefined), for which the z-score was found to be 0.0395.

`CN1CCN(c2ccccc2NC(=O)COc2ccccc2)CC1`: the z-score was -0.109.

On to `CCc1c(C)nc2ncnn2c1N1CCCC(C(=O)Nc2cc(F)ccc2C)C1` (centres undefined), for which the z-score was found to be 0.411.

`Cc1nc2cc(C(=O)OCC(=O)Nc3cccc(Cl)c3)ccc2n1-c1ccccc1` gave a z-score of 2.18.

Take `CCCCNC(=O)Cn1cnc2c(cnn2-c2ccc(C)c(C)c2)c1=O`: the z-score was -1.17.

`Cc1ccccc1C(=O)c1c[nH]c(C(=O)NCc2ccco2)c1`: the z-score is -0.18.

Compound `CC(=O)c1cccc(NC(=O)c2csc(-n3nc(C)cc3C(F)(F)F)n2)c1` yielded a z-score of 0.0985.

`CC(=O)c1cccc(NC(=O)NCc2ccco2)c1` returned a z-score of 0.286.

Take `Cc1nnc(SCc2cccc3ccccc23)n(N)c1=O`: the z-score was found to be 0.226.

For the compound `O=C(c1ccc2c(c1)C(=O)N(Cc1ccco1)C2O)N1CCOCC1` (centres undefined), the z-score was -0.691.

With `Cc1ccc(CSc2nnc(CS(=O)Cc3ccc(Cl)cc3Cl)n2C)cc1` (centres undefined), the z-score was -0.571.

With `O=C(O)C1C2C=CC(O2)C1C(=O)NCc1ccccc1Br` (centres undefined), the z-score came to 0.381.

`O=C(OCCN=C1NS(=O)(=O)c2ccccc21)c1ccccc1`: the z-score is -0.108.

For `CCOC(=O)c1c(CC(C)C)csc1NC(=O)CCl`, the z-score was -0.191.

As for `O=C(Cc1coc2cc3c(cc12)CCC3)NCC1(N2CCCCC2)CCCCC1`, the z-score is -0.67.

Consider `COc1ccc(/C=N/NC(=S)Nc2ccccc2)cc1COc1ccccc1F`, for which the z-score is -0.0868.

Compound `COc1ccc(C(=O)N2CCN(C(=O)c3ccncc3)CC2)cc1` had a z-score of 0.0368.

As for `CC(=O)Oc1ccc2oc(=O)c3c(c2c1)CCCN3C(=O)CN1CCN(c2ncccn2)CC1`, the z-score is -0.26.

As for `Cc1cc2n(n1)C(c1ccco1)Nc1ccccc1-2` (centres undefined), the z-score was -0.00682.

`Cc1cc(C(=O)COC(=O)CC2Sc3ccccc3NC2=O)c(C)n1-c1ccccc1` (centres undefined): the z-score is -0.175.

On to `O=C(Nc1ccc2[nH]c3c(c2c1)CCCC3)c1ccco1`, for which the z-score is -0.169.

As for `CCc1ccc(C(C(=O)NC2CCCCC2)N(C(=O)CNC(=O)c2ccco2)c2cccnc2)cc1` (centres undefined), the z-score was -0.0971.

On to `Cc1ccc(-c2nnc(SCC(=O)NC3CCCc4ccccc43)n2N)cc1` (centres undefined), for which the z-score was -0.297.

As for `COc1ccc(S(=O)(=O)N(CC(=O)N/N=C/c2cccs2)c2ccc(C)cc2)cc1OC`, the z-score is -0.295.

`Cc1ccc(C(=O)O/N=C(\N)c2ccc(Br)cc2)cc1` registered a z-score of 0.141.

On to `O=C(C/C=N/OCc1c(Cl)cccc1Cl)c1cnc(-c2ccccc2)s1`, for which the z-score is -0.12.

In the case of `Cc1cc(Nc2cccc(Cl)n2)n(-c2ccccc2)n1`, the z-score is -0.268.

As for `CN1CCN(S(=O)(=O)c2ccc(NC(=S)NC(=O)C3CC3)cc2)CC1`, the z-score was -0.268.

As to `Cc1c(Br)c([N+](=O)[O-])nn1C(C)C(=O)Nc1nccs1` (centres undefined), the z-score was -0.0782.

`O=C(NCc1ccc2c(c1)OCO2)c1cnc2n(c1=O)CCS2`: the z-score was -0.0299.

For the compound `CCc1ccc(C(=O)N2CCCC2)s1`, the z-score turned out to be 0.0133.

As to `O=S(=O)(NCCc1csc(-c2ccc(C(F)(F)F)cc2)n1)c1ccc2c(c1)OCCO2`, the z-score was 0.811.

`COc1ccc(Nc2nc(Cl)nc(NCCO)n2)cc1`: the z-score was -0.0207.

For the compound `Cc1cc(/C=C2\SC(=Nc3ccc(F)cc3)NC2=O)c(C)n1-c1ccc(S(N)(=O)=O)cc1`, the z-score is -0.288.

For the compound `CCOC(=O)CSc1nnc(CSc2nc3sc4c(c3c(=O)[nH]2)CCCC4)n1-c1ccccc1`, the z-score was -0.635.

Turning to `CCOc1ccc(C(=O)NC(=S)NC2CCCC2)cc1[N+](=O)[O-]`, the z-score came to 0.688.

With `COc1ccc(CCN2CC(C(=O)O)CC2=O)cc1OC` (centres undefined), the z-score is -0.156.

As to `CCCCOc1ccc(C(C)NC(=O)CCS(=O)(=O)Cc2ccc(C)cc2)cc1` (centres undefined), the z-score was -0.144.

With `Cc1[nH]c2ccc(-c3n[nH]c(=S)n3Cc3ccccc3)cc2c1C`, the z-score was -0.413.

Compound `CN1CCN(C(=O)c2ccc(-n3cccc3)cc2)CC1` yielded a z-score of 0.268.

`CC(C)OCCCNC(=O)c1cccc(NC(=O)c2ccccc2)c1` displayed a z-score of 2.99.

As to `CCn1nnnc1SCC(=O)N(C1CCCCC1)C1CCCCC1`, the z-score was -0.262.

Turning to `Cc1ccc(-n2nc(C)cc2NC(=O)c2ccc(C)s2)cc1`, the z-score was -0.352.

As for `Cn1c(=O)oc2cc(S(=O)(=O)N3CCC(C(=O)NCC4COc5ccccc5O4)CC3)ccc21` (centres undefined), the z-score was -0.644.

The compound `CCCCNC(=O)Nc1ccccc1C(=O)NCCC` returned a z-score of 0.0978.

As to `Cc1cccc(NC(=O)COc2ccc(Br)cc2C)n1`, the z-score was -0.25.

Compound `Cc1cccc(-c2n[nH]c(=S)n2/N=C/c2ccc(C)o2)c1` returned a z-score of 0.433.

For `O=C(COc1cccc(-n2cnnn2)c1)Nc1ccccc1`, the z-score was determined as 0.099.

Consider `CCOc1cccc(OCCCCN2CCOCC2)c1`, for which the z-score is -0.982.

On to `CC12C=CC3(O1)C(C(=O)N(c1cccnc1)C3C(=O)NC1CCCCC1)C2C(=O)Nc1ccccc1` (centres undefined), for which the z-score was -0.319.

In turn, `COCCSc1ccccc1C(=O)N1CCN(Cc2ccc3c(c2)OCO3)CC1` had a z-score of 0.12.

`CC1=C(C(=O)c2ccccc2)C(c2cn(-c3ccccc3)nc2-c2ccc(Cl)cc2)NC(=S)N1` (centres undefined): the z-score stood at 0.0488.

`O=C(Oc1cccnc1)c1cc(S(=O)(=O)N2CCOCC2)ccc1Cl`: the z-score was -0.361.

As for `O=C(NC(Cc1c[nH]c2ccccc12)c1nnc2n1CCCCC2)c1ccc(Cl)cc1` (centres undefined), the z-score was -1.47.

Take `O=C(c1ccccc1)N1CCN(Cc2ccccc2Br)CC1`: the z-score amounted to 0.504.

In the case of `COc1ccc(C(=O)NNC(=O)C(NC(=O)c2ccccc2NC(=O)c2ccco2)C(C)C)cc1` (centres undefined), the z-score was -0.156.

As for `N#C/C(=C\c1c(N2CCCCC2)nc2ccccn2c1=O)C(=O)NC1CCS(=O)(=O)C1` (centres undefined), the z-score is -0.276.

For the compound `COc1ccc(CCNC(=O)c2cnc3scc(C)n3c2=O)cc1OC`, the z-score was found to be 0.302.

For the compound `COc1ccccc1NS(=O)(=O)c1ccc(OC)c(OC)c1`, the z-score is -0.0629.

As for `CCOc1ccc(NC(=O)CSCC(=O)O)cc1`, the z-score is -0.178.

For the compound `O=C(Nc1cccc([N+](=O)[O-])c1)c1[nH]ncc1Cl`, the z-score is -0.106.

The compound `COc1cc(CNCCO)ccc1OCC(=O)Nc1ccc(Br)cc1` returned a z-score of 1.47.
